Results taken from PubChem BioAssay AID493208 (National Center for Advancing Translational Sciences (NCATS), 2011).
Screen size: about 44,000 compounds; about 340 (0.77%) were called active. About 5% were inconclusive and are not listed. The call rests on the fitted dose curve; in most records, active means well fitted inhibition curve with a large enough effect; inconclusive means small, poorly fitted or top-dose-only effect; inactive means flat fitted curve, though single readings scatter. Some of the results follow.

test: Acumen qHTS Assay for Inhibitors of the mTORC1 Signaling Pathway in MEF (Tsc2-/-, p53-/-) Cells: Sytravon; conditions: phospho-rpS6 immunofluorescence/PI, 24 h; series mostly up to 38.3 µM; activity change, negative = inhibition: at the top concentration;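 further: plate controls were DMSO for no effect and rapamycin for full effect; nearly all actives have a fitted effect of over 50% in size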
How it was run: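 Immunofluorescence of rpS6 phosphorylation in Tsc2-/-, p53-/- MEFs after 24 h compound exposure, normalized to propidium iodide signal. Activity is expressed as % positive cells, thresholded with 7.5 nM rapamycin.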

Activity change, negative = inhibition, inactive:
CCc1ccccc1NC(=O)c1sc(-n2nc(C)c(Cc3ccccc3)c2C)nc1C -1.26%
COCc1cc(C)nc2sc3c(=O)n(-c4ccccc4C(F)(F)F)nnc3c12 -4.73%
Cc1ccc(C)c(CSc2nnc3[nH]c(=O)cc(-c4ccccc4)n23)c1 0.648%
CCCn1cc(S(=O)(=O)c2cc(C)ccc2C)c(=O)c2cc(F)c(N3CCN(CC)CC3)cc21 -0.674%
CCOC(=O)c1c(S(=O)(=O)NCC(=O)NCc2ccccc2Cl)c(C)n(C)c1C -0.121%
COCCCn1c(=O)c2sccc2n2c(CCCC(=O)NC3CCC(C)CC3)nnc12 (stereo not given) -4.01%
Cc1cccc(NC(=O)C2CCN(S(=O)(=O)c3ccc4c(c3)CCCN4C(=O)C3CCC3)CC2)c1 -12.8%
Cc1cccc(C)c1-n1ncc(C(=O)N2CCN(c3ncccn3)CC2)c1C1CCN(C(=O)OC(C)(C)C)CC1 -0.165%
COc1ccc(C(=O)N(Cc2ccc(N(C)C)cc2)CC2CCCO2)cc1 (stereo not given) 1.1%
COc1cc(NC(=O)CSc2nc(-c3ccc(C(C)C)cc3)no2)cc(OC)c1 -14.5%
COc1ccc(NC(=O)CSc2cn(CCNC(=O)c3c(F)cccc3F)c3ccccc23)cc1 -3.05%
CCN1CCN(Cc2c(O)ccc3c(=O)c(Oc4ccccc4C(C)C)c(C(F)(F)F)oc23)CC1 1.77%
Cc1ccc(NC(=O)CSc2nc3ccc(NC(=O)CCc4ccccc4)cc3s2)cc1 -2.16%
CCCN1CCN(CCCNC(=O)Cn2nc(C)n3c(cc4c(OC)cccc43)c2=O)CC1 0.236%
Cc1ccc(CNC(=O)c2cc3ccc4cccnc4c3[nH]2)cc1 -18.2%
COc1ccc(-c2noc(-c3ccc(NC4CCCC4)c([N+](=O)[O-])c3)n2)cc1OC 4.2%
Cc1ccccc1CNC(=O)c1ccc2nc(C(C)C)oc2c1 2.23%
COc1cc(Cl)c(C)cc1NC(c1ccccc1)c1nnc(-c2ccccc2Cl)o1 (stereo not given) 1.56%
Cc1ccc(NC(=O)Cn2cnc3c2c(=O)n(C)c(=O)n3C)cc1C 1.93%
CCN(C(=O)Cn1c(=O)n(Cc2ccccc2)c(=O)c2c1c1cc(OC)ccc1n2C)c1ccccc1 0.636%
CC(=O)Nc1ccc2nc(NC(=O)CS(=O)(=O)c3ccc(C)cc3)sc2c1 1.18%
CCC(C)n1c(=N)c(C(=O)NC2CCCCC2)cc2c(=O)n3ccccc3nc21 (stereo not given) 2.08%
Cc1ccc(C)c(N2CCN(S(=O)(=O)c3cn(C)c(C)n3)CC2)c1 -8.54%
COc1ccc(C2=Nc3ccc(OC(F)(F)F)cc3NC(c3cccnc3)=N2)cc1 -5.25%
Cc1ccc2c(=O)cc(C(=O)Nc3sc4c(c3C(=O)NCC3CCCO3)CCCC4)oc2c1C (stereo not given) 7.94%
Cc1ccc(Cl)cc1NC(=O)CCc1c(C)nc2c3cccnc3nn2c1C -9.58%
O=C(c1cccc(Cl)c1)N1c2ncnn2C2(CCCCC2)[C@@H]2CCCC[C@@H]21 -14.9%
Cc1ccc2c(c1)N(C(=O)N1CCC(C(=O)NCCc3ccccc3)CC1)CC(C)O2 (stereo not given) 9.38%
COc1ccc(-c2ccc3c(N)c(C(=O)NCc4ccc(C)cc4)sc3n2)cc1 -23.7%
CC(C)(C)OC(=O)N1CCC(c2c(C(=O)NCCN3CCOCC3)cnn2-c2ccc(F)cc2)CC1 5.21%
O=C(COc1ccc(F)cc1)Nc1nnc(SCc2cc(=O)n3ccccc3n2)s1 12.9%
CCOc1ccc(-c2nonc2NC(=O)c2oc3cc(C)ccc3c2C)cc1OCC 1.2%
COc1ccc(N2Cc3cccc(C(=O)Nc4ccc(Cl)cc4)c3C2=O)cc1 -1.7%
O=C(Nc1nc2n(n1)C(c1ccccc1)C=C(c1ccc(Cl)cc1)N2)c1ccco1 (stereo not given) -0.141%
COc1cccc(Cn2c(SCc3ccc(C(=O)N4CCCCC4)cc3)nc3ccncc32)c1 0.28%
Cc1cc(Cl)ccc1NC(=O)CN1C(=O)COc2ccc(S(=O)(=O)Nc3ccccc3)cc21 -7.69%
CCOC(=O)C1CCCN(C(=O)c2ccc3c(c2)sc2nc(-c4ccc(C)cc4C)cn23)C1 (stereo not given) 2.57%
Cc1ccc(CN(Cc2ccco2)C(=O)COc2cccc(C)c2C)o1 -6.5%
CC(=O)c1cccc(-n2c(=O)c3c4c(sc3n(CC(=O)Nc3ccccc3F)c2=O)CN(C(C)=O)CC4)c1 -0.498%
COc1cc(NC(=O)c2ccc3c(Cl)c4c(nc3c2)CCC4)cc(OC)c1OC -15.7%
CC(C)(CC(=O)OCC(=O)Nc1ccccc1F)CC1=NS(=O)(=O)c2ccccc2N1 -13.1%
O=C(COc1ccc([N+](=O)[O-])cc1)N1CCC(c2nc3ccccc3s2)CC1 -12.1%
CCc1ccc(CNC(=O)C2CCN(c3nnc(C)c4c(C)n(-c5ccc(C)cc5)nc34)CC2)cc1 -8.99%
CCOc1ccc(N(C(C)C(=O)NCCSc2ccc(Cl)cc2)S(C)(=O)=O)cc1 (stereo not given) 2.13%
Cc1cc(NC(=O)c2cc(-c3ccc(Br)cc3)on2)nn1Cc1ccc(Cl)cc1 -4.13%
O=C(Nc1nnc(S(=O)(=O)N2CCCCCC2)s1)c1ccccc1F -1.08%
O=C(Cn1nc(-c2ccccc2)c2cnc3ccc(F)cc3c21)NC1CCCC1 1.01%
CCOC(=O)C1CCN(c2cc(C)nc3c(-c4ccccc4OC)c(C)nn23)CC1 1.52%
CCOc1cccc2sc(N3CCN(C(=O)C(C)(C)C)CC3)nc12 1.51%
Cc1nc(N2CCOCC2)c2c(C(=O)N(C)Cc3ccccc3)c(C)oc2n1 4.57%
Cc1ccc(-c2nnc(SCC(=O)N3CCCc4ccccc43)o2)cc1 4%
Cc1cc(NC(=O)CSc2nc3c([nH]c4ccccc43)c(=O)n2-c2ccccc2F)no1 -0.538%
CCCCNc1nc(Oc2ccc(=O)n(-c3ccccc3)n2)nc(N(CC)CC)n1 -5.37%
Cc1ccc(C(=O)c2oc3ccccc3c2NC(=O)c2cc(=O)c3cc(C)ccc3o2)cc1 -6.04%
COc1cccc(Cn2ccn(-c3ccc(F)cc3)c(=O)c2=O)c1 6.62%
O=C(Nc1ccc(Cl)cc1)N1CCC(CN2CCCCCC2)CC1 -3.18%
COc1ccc(NC(=O)Cn2cc(C(=O)c3ccncc3)c(=O)c3cc(C)ccc32)cc1Cl 2.15%
COc1ccc(CNC(=O)CCc2c(C)c3ccc(OC)c(C)c3oc2=O)cc1OC 3.88%
Cc1cccc(Cn2c(SCc3ccc(C(=O)NCc4ccccc4)cc3)nc3cccnc32)c1 -0.541%
CCNC(=O)C1CCCN(c2ncnc3onc(C)c23)C1 (stereo not given) 5.43%
